Laboratory results from the supplement of paper PMC8728848.
The other results are listed elsewhere or left out.

Assays:
Assay in all cases: glycan array binding signal (z-score within array); higher = stronger binding
Conditions in all cases: glycan notation: IUPAC condensed, linker removed
[1] = target: 3-Anhydro-Gal(a1-3)Gal(b1-4)3-Anhydro-Gal(a1-3)Gal4S
Procedure, shortened: (§1)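 Negative Z-scores can be read as non-binding. The Z-score is calculated within each array and then averaged across arrays of one protein sequence at different concentrations or buffers and across linkers. Arrays, 3228 in all, were curated from the Consortium for Functional Glycomics database and kept only where the protein sequence was available.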

[2] = target: 3-Anhydro-Gal(a1-3)Gal4S(b1-4)3-Anhydro-Gal(a1-3)Gal4S
Procedure, shortened: as §1

[3] = target: 3-Anhydro-Gal(a1-3)Gal4S(b1-4)3-Anhydro-Gal(a1-3)Gal4S(b1-4)3-Anhydro-Gal(a1-3)Gal4S
Procedure, shortened: as §1

[4] = target: 3-Anhydro-Gal(a1-3)Gal4S(b1-4)3-Anhydro-Gal(a1-3)Gal4S(b1-4)3-Anhydro-Gal(a1-3)Gal4S(b1-4)3-Anhydro-Gal(a1-3)Gal4S
Procedure, shortened: as §1

[5] = target: 3-Anhydro-Gal(a1-3)Gal4S(b1-4)3-Anhydro-Gal2S(a1-3)Gal4S(b1-4)3-Anhydro-Gal(a1-3)Gal4S
Procedure, shortened: as §1

[6] = target: 3dGal(b1-3)[Fuc(a1-4)]Glc
Procedure, shortened: as §1

[7] = target: 3dGal(b1-4)Glc
Procedure, shortened: as §1

[8] = target: Ara(a1-5)Ara(a1-5)Ara(a1-5)Ara(a1-5)Ara(a1-5)Ara
Procedure, shortened: as §1

[9] = target: Ara(a1-5)Ara(a1-5)Ara(a1-5)Ara(a1-5)Ara(a1-5)Ara(a1-5)Ara
Procedure, shortened: as §1

[10] = target: Fuc(a1-2)Gal
Procedure, shortened: as §1

[11] = target: Fuc(a1-2)Gal(b1-3)GlcNAc(b1-3)Gal(b1-4)Glc
Procedure, shortened: as §1

[12] = target: Fuc(a1-2)Gal(b1-3)GlcNAc(b1-3)[Fuc(a1-3)[Gal(b1-4)]GlcNAc(b1-6)]Gal(b1-4)Glc
Procedure, shortened: as §1

[13] = target: Fuc(a1-2)Gal(b1-3)[Fuc(a1-4)]GlcNAc(b1-3)Gal(b1-4)Glc
Procedure, shortened: as §1

[14] = target: Fuc(a1-2)Gal(b1-3)[Fuc(a1-4)]GlcNAc(b1-3)Gal(b1-4)[Fuc(a1-3)]GlcNAc(b1-3)Gal(b1-4)Glc
Procedure, shortened: as §1

[15] = target: Fuc(a1-2)Gal(b1-3)[Fuc(a1-4)]GlcNAc(b1-3)[Fuc(a1-2)]Gal(b1-4)Glc
Procedure, shortened: as §1

[16] = target: Fuc(a1-2)Gal(b1-3)[Fuc(a1-4)]GlcNAc(b1-3)[Fuc(a1-3)[Gal(b1-4)]GlcNAc(b1-6)]Gal(b1-4)Glc
Procedure, shortened: as §1

[17] = target: Fuc(a1-2)Gal(b1-3)[Fuc(a1-4)]GlcNAc(b1-3)[Gal(b1-4)GlcNAc(b1-6)]Gal(b1-4)Glc
Procedure, shortened: as §1

[18] = target: Fuc(a1-2)Gal(b1-4)[Fuc(a1-3)]GlcNAc(b1-3)Gal(b1-4)Glc
Procedure, shortened: as §1

[19] = target: Fuc(a1-2)Gal(b1-4)[Fuc(a1-3)]GlcNAc(b1-3)[Fuc(a1-2)]Gal(b1-4)Glc
Procedure, shortened: as §1

[20] = target: Fuc(a1-2)[Gal(a1-3)]Gal
Procedure, shortened: as §1

[21] = target: Fuc(a1-2)[Gal(a1-3)]Gal(b1-4)GlcNAc(b1-3)Gal(b1-4)Glc
Procedure, shortened: as §1

[22] = target: Fuc(a1-2)[GalNAc(a1-3)]Gal
Procedure, shortened: as §1

[23] = target: Fuc(a1-2)[GalNAc(a1-3)]Gal(b1-3)GlcNAc(b1-3)Gal(b1-4)Glc
Procedure, shortened: as §1

[24] = target: Fuc(a1-2)[GalNAc(a1-3)]Gal(b1-3)[Fuc(a1-4)]GlcNAc(b1-3)Gal(b1-4)Glc
Procedure, shortened: as §1

[25] = target: Fuc(a1-2)[Neu5Ac(bond)]Gal(b1-3)GlcNAc(b1-3)Gal(b1-4)Glc
Procedure, shortened: as §1

[26] = target: Fuc(a1-3)GlcNAc6S
Procedure, shortened: as §1

[27] = target: Fuc(a1-3)[3dGal(b1-4)]Glc
Procedure, shortened: as §1

[28] = target: Fuc(a1-3)[Gal(b1-4)]GlcNAc
Procedure, shortened: as §1

[29] = target: Fuc(a1-3)[Gal(b1-4)]GlcNAc(b1-3)Gal(b1-4)Glc
Procedure, shortened: as §1

[30] = target: Fuc(a1-3)[Gal(b1-4)]GlcNAc(b1-3)Gal(b1-4)[Fuc(a1-3)]Glc
Procedure, shortened: as §1

[31] = target: Fuc(a1-3)[Gal(b1-4)]GlcNAc(b1-3)[Fuc(a1-2)]Gal(b1-4)Glc
Procedure, shortened: as §1

[32] = target: Fuc(a1-3)[Gal(b1-4)]GlcNAc(b1-3)[Fuc(a1-3)[Gal(b1-4)]GlcNAc(b1-6)]Gal(b1-4)Glc
Procedure, shortened: as §1

[33] = target: Fuc(a1-3)[Gal3S(b1-4)]Glc
Procedure, shortened: as §1

[34] = target: Fuc(a1-3)[Gal3S(b1-4)]GlcNAc
Procedure, shortened: as §1

[35] = target: Fuc(a1-3)[Gal3S(b1-4)]GlcNAc(b1-3)Gal(b1-4)Glc
Procedure, shortened: as §1

[36] = target: Fuc(a1-3)[Gal3S(b1-4)]GlcNAc6S(b1-3)Gal(b1-4)Glc
Procedure, shortened: as §1

[37] = target: Fuc(a1-3)[Gal6S(b1-4)]GlcNAc(b1-3)Gal(b1-4)Glc
Procedure, shortened: as §1

[38] = target: Fuc(a1-6)GlcNAc
Procedure, shortened: as §1

[39] = target: Gal(a1-3)Gal(b1-4)Gal(a1-3)Gal
Procedure, shortened: as §1

[40] = target: Gal(a1-4)Gal(b1-4)GlcNAc
Procedure, shortened: as §1

[41] = target: Gal(b1-3)GalNAc
Procedure, shortened: as §1

[42] = target: Gal(b1-3)GalNAc(b1-4)Gal(b1-4)Glc
Procedure, shortened: as §1

[43] = target: Gal(b1-3)GalNAc(b1-4)Gal3S(b1-4)Glc
Procedure, shortened: as §1

[44] = target: Gal(b1-3)GalNAc(b1-4)[Neu5Ac(a2-3)]Gal(b1-4)Glc
Procedure, shortened: as §1

[45] = target: Gal(b1-3)GalNAc(b1-4)[Neu5Gc(a2-3)]Gal(b1-4)Glc
Procedure, shortened: as §1

Measured: glycan array binding signal (z-score)

B1: CLECSF8 (Mus musculus), Q9Z2H6 (protein)
chain: HYFLRWTRGSVVKLSDYHTRVTCIREEPQPGATGGTWTCCPVSWRAFQSNCYFPLNDNQTWHESERNCSGMSSHLVTINTEAEQNFVTQLLDKRFSYFLGLADENVEGQWQWVDKTPFNPHTVFWEKGESNDFMEEDCVVLVHVHEKWVWNDFPCHFEVRRICKLPGITFNWKPSK
1.03: [14]
-0.102: [26]
-0.413: [28]
1.07: [27]
0.899: [9]
0.072: [7]
-0.397: [13]
-0.401: [36]
-0.223: [22]
1.8: [10]
-0.144: [30]
0.313: [8]
-0.424: all other assays above
